Data set [1] relates to MRSA strain USA300. The data set is described as follows: microbe, parasite or virus in culture. The note with it: for Growth: DMSO control = 100; for activity at 1 µg/mL / activity at 10 µg/mL: Staphylococcus aureus, read-out: Growth.
Data set [2] concerns MRSA strain USA300. The data set is described as follows: microbe, parasite or virus in culture. The note with it: DMSO control = 100; for hemolysis at 1 µg/mL / hemolysis at 10 µg/mL: Staphylococcus aureus, Erythrocyte, in Oryctolagus cuniculus.

The values below come from US20180021277A1, “ANTI-VIRULENCE COMPOSITIONS AND METHODS” (priority 2012, published 2018).

Each structure is given as a SMILES string.

Consider `O=C(COc1ccccc1)c1ccc(O)cc1O` [4a-0], for which, in the data set with MRSA strain USA300 [1] (10 μg/mL compound), the Growth was determined as 109.7%. This compound came in with a Hemolysis in the data set with MRSA strain USA300 [2] (10 μg/mL compound) of 31.5 ± 0.9%.

Consider `O=C(COc1cccc(F)c1)c1ccc(O)cc1O` [4a-1], for which, in the data set on MRSA strain USA300 [1], the activity at 1 µg/mL is 98.7% and the activity at 10 µg/mL is 99.4%. For the same compound, the hemolysis at 1 µg/mL in the data set on MRSA strain USA300 [2] (1 μg/mL compound) stood at 81 ± 4.4%. Moreover, the hemolysis at 10 µg/mL in the data set with MRSA strain USA300 [2] (10 μg/mL compound) is 10.1 ± 0.5%.

For `O=C(COc1cccc(Cl)c1)c1ccc(O)cc1O` [4a-3], in the data set with MRSA strain USA300 [1], the activity at 1 µg/mL is 107% and the activity at 10 µg/mL is 79.5%. The hemolysis at 1 µg/mL in the data set on MRSA strain USA300 [2] (1 μg/mL compound) was found to be 83.2 ± 4.7%. Besides, in the data set on MRSA strain USA300 [2] (10 μg/mL compound), the hemolysis at 10 µg/mL turned out to be 1.2 ± 0.2%.

On to `O=C(COc1ccc(Cl)cc1)c1ccc(O)cc1O` [4a-4], for which the Growth in the data set on MRSA strain USA300 [1] (1 μg/mL compound) is 96.7%; in the data set with MRSA strain USA300 [1] (10 μg/mL compound), 95.5%. Further, the Hemolysis in the data set with MRSA strain USA300 [2] (1 μg/mL compound) is recorded as 119.1 ± 7.4%; in the data set with MRSA strain USA300 [2] (10 μg/mL compound) it was 7.5 ± 0.5%.

As for `O=C(COc1ccccc1F)c1ccc(O)cc1O` [4a-5], in the data set with MRSA strain USA300 [1] (10 μg/mL compound), the Growth was 101.8%. The Hemolysis in the data set with MRSA strain USA300 [2] (10 μg/mL compound) amounted to 26.7 ± 1.5%.

For `O=C(COc1ccc(F)cc1)c1ccc(O)cc1O` [4a-6], in the data set on MRSA strain USA300 [1], the activity at 10 µg/mL came out at 106%. Moreover, the hemolysis at 10 µg/mL in the data set with MRSA strain USA300 [2] (10 μg/mL compound) stood at 39.7 ± 3.8%.

Consider `O=C(COc1ccc(Br)cc1)c1ccc(O)cc1O` [4a-7], for which, in the data set on MRSA strain USA300 [1], the activity at 1 µg/mL amounted to 98.7% and the activity at 10 µg/mL was found to be 68.9%. The hemolysis at 1 µg/mL in the data set on MRSA strain USA300 [2] (1 μg/mL compound) stood at 97 ± 3.9%. The hemolysis at 10 µg/mL with MRSA strain USA300 [2] (10 μg/mL compound) is 5.7 ± 1.1%.

As to `O=C(COc1ccc(I)cc1)c1ccc(O)cc1O` [4a-8], in the data set on MRSA strain USA300 [1], the activity at 1 µg/mL worked out at 94.2% and the activity at 10 µg/mL stood at 69.6%. Further, in the data set on MRSA strain USA300 [2] (1 μg/mL compound), the hemolysis at 1 µg/mL is 74.8 ± 9.9%. Moreover, the hemolysis at 10 µg/mL with MRSA strain USA300 [2] (10 μg/mL compound) amounted to 1.4%.

Take `Cc1ccccc1OCC(=O)c1ccc(O)cc1O` [4a-9]: in the data set with MRSA strain USA300 [1], the activity at 1 µg/mL was found to be 104% and the activity at 10 µg/mL stood at 89.8%. Also, in the data set with MRSA strain USA300 [2] (1 μg/mL compound), the hemolysis at 1 µg/mL came out at 113 ± 4.4%. Also, in the data set with MRSA strain USA300 [2] (10 μg/mL compound), the hemolysis at 10 µg/mL stood at 14 ± 0.6%.

On to `Cc1cccc(OCC(=O)c2ccc(O)cc2O)c1` [4a-10], for which, in the data set on MRSA strain USA300 [1], the activity at 10 µg/mL was 100%. Besides, the hemolysis at 10 µg/mL in the data set with MRSA strain USA300 [2] (10 μg/mL compound) amounted to 90.5 ± 6.2%.

As for `O=C(COc1ccc(F)c(F)c1)c1ccc(O)cc1O` [4a-14], the activity at 10 µg/mL in the data set with MRSA strain USA300 [1] came to 106%. Further, the hemolysis at 10 µg/mL with MRSA strain USA300 [2] (10 μg/mL compound) was determined as 46.5 ± 2.7%.

As to `O=C(COc1cc(F)cc(F)c1)c1ccc(O)cc1O` [4a-15], in the data set with MRSA strain USA300 [1], the activity at 1 µg/mL came out at 97.5% and the activity at 10 µg/mL is 95.8%. For the same compound, the hemolysis at 1 µg/mL in the data set on MRSA strain USA300 [2] (1 μg/mL compound) was 77 ± 2.4%. Further, the hemolysis at 10 µg/mL in the data set on MRSA strain USA300 [2] (10 μg/mL compound) was 7.8 ± 2.5%.

As for `O=C(COc1cc(F)c(F)cc1F)c1ccc(O)cc1O` [4a-16], in the data set on MRSA strain USA300 [1] (10 μg/mL compound), the Growth was 110.5%. The Hemolysis with MRSA strain USA300 [2] (10 μg/mL compound) turned out to be 45.1 ± 1.6%.

Consider `CC(C)c1ccc(OCC(=O)c2ccc(O)cc2O)cc1` [4a-19], for which, in the data set with MRSA strain USA300 [1], the activity at 1 µg/mL was found to be 104% and the activity at 10 µg/mL amounted to 8.3%. Besides, the hemolysis at 1 µg/mL in the data set with MRSA strain USA300 [2] (1 μg/mL compound) was found to be 80.4 ± 10.1%. For the same compound, the hemolysis at 10 µg/mL in the data set with MRSA strain USA300 [2] (10 μg/mL compound) is -2.3%.

As for `CC(C)(C)c1ccc(OCC(=O)c2ccc(O)cc2O)cc1` [4a-20], in the data set on MRSA strain USA300 [1], the activity at 1 µg/mL was 108% and the activity at 10 µg/mL amounted to 4.3%. Besides, in the data set with MRSA strain USA300 [2] (1 μg/mL compound), the hemolysis at 1 µg/mL amounted to 79.7 ± 1.8%. For the same compound, the hemolysis at 10 µg/mL with MRSA strain USA300 [2] (10 μg/mL compound) was -3.3 ± 0.1%.

For `O=C(COc1ccc(-c2ccccc2)cc1)c1ccc(O)cc1O` [4a-21], the Growth with MRSA strain USA300 [1] (10 μg/mL compound) is recorded as 100.4%. The same compound displayed a Hemolysis in the data set on MRSA strain USA300 [2] (10 μg/mL compound) of 29.4 ± 2.9%.

As to `O=C(COc1ccccc1C(=O)O)c1ccc(O)cc1O` [4a-23], the Growth in the data set on MRSA strain USA300 [1] (10 μg/mL compound) is given as 100.8%. This compound also displayed a Hemolysis with MRSA strain USA300 [2] (10 μg/mL compound) of 107.6 ± 1.8%.

With `O=C(O)c1cccc(OCC(=O)c2ccc(O)cc2O)c1` [4a-24], in the data set with MRSA strain USA300 [1], the activity at 10 µg/mL is 102%. Moreover, in the data set with MRSA strain USA300 [2] (10 μg/mL compound), the hemolysis at 10 µg/mL came to 80.5 ± 6.5%.

As to `COc1ccc(OCC(=O)c2ccc(O)cc2O)cc1` [4a-26], the activity at 10 µg/mL in the data set with MRSA strain USA300 [1] turned out to be 104%. In addition, the hemolysis at 10 µg/mL in the data set on MRSA strain USA300 [2] (10 μg/mL compound) worked out at 48.2 ± 2.6%.

For the compound `COC(=O)c1ccccc1OCC(=O)c1ccc(O)cc1O` [4a-27], the activity at 10 µg/mL in the data set on MRSA strain USA300 [1] was 102%. Further, the hemolysis at 10 µg/mL in the data set on MRSA strain USA300 [2] (10 μg/mL compound) is 58.9 ± 5.1%.

Consider `COC(=O)c1cccc(OCC(=O)c2ccc(O)cc2O)c1` [4a-28], for which the activity at 10 µg/mL with MRSA strain USA300 [1] turned out to be 100%. Also, in the data set on MRSA strain USA300 [2] (10 μg/mL compound), the hemolysis at 10 µg/mL was 24.2 ± 2%.

Consider `CCc1cc(C(=O)COc2ccccc2)c(O)cc1O` [4b-0], for which the results for the Growth in the data set on MRSA strain USA300 [1] (1 μg/mL compound) and in the data set with MRSA strain USA300 [1] (10 μg/mL compound) were 102.4% and 100.6%, respectively. Also, the values for the Hemolysis in the data set with MRSA strain USA300 [2] (1 μg/mL compound) and in the data set with MRSA strain USA300 [2] (10 μg/mL compound) were 90.8 ± 6.6% and 2.1 ± 0.2%, respectively.

Consider `CCc1cc(C(=O)COc2cccc(F)c2)c(O)cc1O` [4b-1], for which, in the data set with MRSA strain USA300 [1], the activity at 1 µg/mL came to 93.5% and the activity at 10 µg/mL is 97.7%. Besides, in the data set with MRSA strain USA300 [2] (1 μg/mL compound), the hemolysis at 1 µg/mL came to 88.5 ± 12.8%. For the same compound, the hemolysis at 10 µg/mL in the data set on MRSA strain USA300 [2] (10 μg/mL compound) turned out to be 22.4 ± 3.9%.
